According to patent US20020106773A1 (MYRIAD GENETICS, published 2002):

B2: CIB, amino acids 1-191, fused to the Gal4 DNA binding domain (bait) (other, UniProt P04386 1-147, looked up)
chain: MKLLSSIEQACDICRLKKLKCSKEKPKCAKCLKNNWECRYSPKTKRSPLTRAHLTEVESRLERLEQLFLLIFPREDLDMILKMDSLQDIKALLTGLFVQDNVNKDAVTDRLASVETDMPLTLRQHRISATSSSEESSNKGQRQLTVSMGGSGSRLSKELLAEYQDLTFLTKQEILLAHRRFCELLPQEQRSVESSLRAQVPFEQILSLPELKANPFKERICRVFSTSPAKDSLSFEDFLDLLSVFSDTATPDIKSHYAFRIFDFDDDGTLNREDLSRLVNCLTGEGEDTRLSASEMKQLIDNILEESDIDRDGTINLSEFQHVISRSPDFASSFKIVL
notes: range 1-147;range 1-191; Yeast two-hybrid bait in pGBTQ

How the values were obtained:
[1] = molecular target: T1, glyceraldehyde-3-phosphate dehydrogenase (GAPDH), amino acids 2-190, fused to the Gal4 activation domain … (yeast; human, UniProt P04386 768-881; P04406 2-190); assay: yeast two-hybrid, Example 16: bait PS2 aa 1-97, prey aa 2-190
T1 construct: range 768-881;range 2-190; Yeast two-hybrid prey from the human brain cDNA library in pACT2; the same range is printed for the PS1 and the PS2 search

[2] = molecular target: T2, mixed lineage kinase 2 (MLK2), amino acids 305-549, fused to the Gal4 activation domain (prey) (yeast; human, UniProt P04386 768-881; Q02779 305-549); assay: yeast two-hybrid, Example 21: bait CIB aa 1-191, prey aa 305-549
T2 construct: range 768-881;range 305-549; Yeast two-hybrid prey from the human brain cDNA library in pACT2; also called MST; MAP3K10

[3] = molecular target: T3, Focal adhesion kinase 2 (FAK2), amino acids 673-866, fused to the Gal4 DNA binding domain (bait) (yeast, UniProt P04386 1-147; Q14289 673-866); assay: yeast two-hybrid, Example 23: bait FAK2 aa 673-866, prey aa 121-270
T3 construct: range 1-147;range 673-866; Yeast two-hybrid bait in pGBTQ; also called proline-rich tyrosine kinase 2 (PYK2); cell adhesion kinase beta

[4] = molecular target: T4, phosphodiesterase 9A (PDE-9A), amino acids 269-593, fused to the Gal4 activation domain (prey) (yeast; human, UniProt P04386 768-881; O76083 269-593); assay: yeast two-hybrid, Example 24: bait Mint2 aa 1-210, prey aa 269-593
T4 construct: range 768-881;range 269-593; Yeast two-hybrid prey from the human brain cDNA library in pACT2

[5] = molecular target: B2; assay: yeast two-hybrid, Example 25: bait CIB aa 1-191, prey aa 320-359
[6] = molecular target: T5, focal adhesion kinase (FAK), amino acids 724-1052, fused to the Gal4 DNA binding domain (bait) (yeast, UniProt P04386 1-147; Q05397 724-1052); assay: yeast two-hybrid, Example 27: bait FAK aa 724-1052, prey aa 264-351
T5 construct: range 1-147;range 724-1052; Yeast two-hybrid bait in pGBTQ

[7] = molecular target: T5, focal adhesion kinase (FAK), amino …; assay: yeast two-hybrid, Example 28: bait FAK aa 724-1052, prey aa 15-226
[8] = molecular target: T6, transcription factor HTF4A, amino acids 296-494, fused to the Gal4 activation domain (prey) (yeast; human, UniProt P04386 768-881; Q99081 296-494); assay: yeast two-hybrid, Example 32: bait bcr aa 1206-1271, prey aa 296-494
T6 construct: range 768-881;range 296-494; Yeast two-hybrid prey from the human brain cDNA library in pACT2
T6 sequence (looked up): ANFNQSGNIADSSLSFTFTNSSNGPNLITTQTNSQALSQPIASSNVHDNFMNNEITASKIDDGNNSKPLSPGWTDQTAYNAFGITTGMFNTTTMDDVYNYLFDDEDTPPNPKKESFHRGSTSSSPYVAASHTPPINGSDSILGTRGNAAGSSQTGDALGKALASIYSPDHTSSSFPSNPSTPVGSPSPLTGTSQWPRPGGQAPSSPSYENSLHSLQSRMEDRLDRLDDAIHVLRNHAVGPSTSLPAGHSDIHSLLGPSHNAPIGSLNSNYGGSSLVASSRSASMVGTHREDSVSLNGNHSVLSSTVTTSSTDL

[9] = molecular target: T7, neuroendocrine protein Discs Large 3 (DLG3), amino acids 94-506, fused to the Gal4 activation domain (prey) (yeast; human, UniProt P04386 768-881; Q92796 94-506); assay: yeast two-hybrid, Example 30: bait bcr aa 1206-1271, prey aa 94-506
T7 construct: range 768-881;range 94-506; Yeast two-hybrid prey from the human brain cDNA library in pACT2; also called NE-d1g; SAP102 (synapse-associated protein 102)
T7 sequence (looked up): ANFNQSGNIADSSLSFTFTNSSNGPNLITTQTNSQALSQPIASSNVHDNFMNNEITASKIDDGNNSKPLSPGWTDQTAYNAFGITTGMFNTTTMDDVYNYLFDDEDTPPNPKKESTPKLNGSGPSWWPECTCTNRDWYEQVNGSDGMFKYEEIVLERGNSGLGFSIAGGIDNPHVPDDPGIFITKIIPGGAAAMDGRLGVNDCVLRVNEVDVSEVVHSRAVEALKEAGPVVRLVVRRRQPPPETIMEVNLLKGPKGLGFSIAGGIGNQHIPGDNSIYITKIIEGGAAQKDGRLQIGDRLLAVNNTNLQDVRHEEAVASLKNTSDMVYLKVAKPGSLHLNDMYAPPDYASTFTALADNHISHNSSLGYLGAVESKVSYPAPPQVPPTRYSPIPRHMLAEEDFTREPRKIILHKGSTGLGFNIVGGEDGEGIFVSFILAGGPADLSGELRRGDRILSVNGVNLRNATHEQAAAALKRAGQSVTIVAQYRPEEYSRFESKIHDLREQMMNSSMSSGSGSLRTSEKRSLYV

[10] = molecular target: T8, transthyretin (TTH), amino acids 7-148, fused to the Gal4 activation domain (prey) (yeast; human, UniProt P04386 768-881; P02766 7-147); assay: yeast two-hybrid, Example 5: bait BAT3 aa 740-1040, prey aa 7-148
T8 construct: Yeast two-hybrid prey from the human brain cDNA library in pACT2

[11] = molecular target: T9, glutamine synthase (GS), amino acids 49-212, fused to the Gal4 activation domain (prey) (yeast; human, UniProt P04386 768-881; P15104 49-212); assay: yeast two-hybrid, Example 7: bait Mint1 aa 739-837, prey aa 49-212
T9 construct: range 768-881;range 49-212; Yeast two-hybrid prey from the human brain cDNA library in pACT2; also called glutamine synthetase; glutamate ammonia ligase

B1: Presinilin 2 (PS2), amino acids 1-97, fused to the Gal4 DNA binding domain (bait) (other, UniProt P04386 1-147, looked up)
chain: MKLLSSIEQACDICRLKKLKCSKEKPKCAKCLKNNWECRYSPKTKRSPLTRAHLTEVESRLERLEQLFLLIFPREDLDMILKMDSLQDIKALLTGLFVQDNVNKDAVTDRLASVETDMPLTLRQHRISATSSSEESSNKGQRQLTVSMLTFMASDSEEEVCDERTSLMSAESPTPRSCQEGRQGPEDGENTAQWRSQENEEDGEEDPDRYVCSGVPGRPPGLEEELTLKYGAKHVIMLFVPVTL
notes: range 1-147;range 1-97; Yeast two-hybrid bait in pGBTQ
binding result [1]: binds

B2
binding result [2]: binds

B3: SUR1, the type-1 sulfonylurea receptor, amino acids 121-270, fused to the Gal4 activation domain (prey) (other, yeast;human, UniProt P04386 768-881, looked up, not shown: small tags and cut ends)
chain: ANFNQSGNIADSSLSFTFTNSSNGPNLITTQTNSQALSQPIASSNVHDNFMNNEITASKIDDGNNSKPLSPGWTDQTAYNAFGITTGMFNTTTMDDVYNYLFDDEDTPPNPKKEVVYYHNIETSNFPKLLIALLVYWTLAFITKTIKFVKFLDHAIGFSQLRFCLTGLLVILYGMLLLVEVNVIRVRRYIFFKTPREVKPPEDLQDLGVRFLQPFVNLLSKGTYWWMNAFIKTAHKKPIDLRAIGKLPIAMRALTNYQRLCEAF
notes: Yeast two-hybrid prey from the human brain cDNA library in pACT2; also called SURI
binding result [3]: binds

B4: Mint2, amino acids 1-210, fused to the Gal4 DNA binding domain (bait) (other, UniProt P04386 1-147, looked up)
chain: MKLLSSIEQACDICRLKKLKCSKEKPKCAKCLKNNWECRYSPKTKRSPLTRAHLTEVESRLERLEQLFLLIFPREDLDMILKMDSLQDIKALLTGLFVQDNVNKDAVTDRLASVETDMPLTLRQHRISATSSSEESSNKGQRQLTVSMAHRKLESVGSGMLDHRVRPGPVPHSQEPESEDMELPLEGYVPEGLELAALRPESPAPEEQECHNHSPDGDSSSDYVNNTSEEEDYDEGLPEEEEGITYYIRYCPEDDSYLEGMDCNGEEYLAHSAHPVDTDECQEAVEEWTDSAGPHPHGHEAEGSQDYPDGQLPIPEDEPSVLEAHDQEEDGHYCASKEGYQDYYPEEANGNTGASPY
notes: range 1-147;range 1-210; Yeast two-hybrid bait in pGBTQ; also called X11 beta
binding result [4]: binds

B5: stearoyl CoA desaturase (SCD2), amino acids 320-359, fused to the Gal4 activation domain (prey) (other, yeast;human, UniProt P04386 768-881, looked up, not shown: small tags and cut ends)
chain: ANFNQSGNIADSSLSFTFTNSSNGPNLITTQTNSQALSQPIASSNVHDNFMNNEITASKIDDGNNSKPLSPGWTDQTAYNAFGITTGMFNTTTMDDVYNYLFDDEDTPPNPKKETTFFIDCMAALGLAYDRKKVSKAAILARIKRTGDGNYKSG
notes: range 768-881;range 320-359; Yeast two-hybrid prey from the human brain cDNA library in pACT2; also called Delta(9) desaturase
binding result [5]: binds

B6: casein kinase II (CK2), amino acids 264-351, fused to the Gal4 activation domain (prey) (other, yeast;human, UniProt P04386 768-881, looked up, not shown: small tags and cut ends)
chain: ANFNQSGNIADSSLSFTFTNSSNGPNLITTQTNSQALSQPIASSNVHDNFMNNEITASKIDDGNNSKPLSPGWTDQTAYNAFGITTGMFNTTTMDDVYNYLFDDEDTPPNPKKEIDLDPHFNDILGQHSRKRWENFIHSENRHLVSPEALDLLDKLLRYDHQQRLTAKEAMEHPYFYPVVKEQSQPCADNAVLSSGLTAAR
notes: Yeast two-hybrid prey from the human brain cDNA library in pACT2
binding result [6]: binds

B7: glutathione-S-transferase M3 (GST trans. M3), amino acids 15-226, fused to the Gal4 activation domain (prey) (other, yeast;human, UniProt P04386 768-881, looked up, not shown: small tags and cut ends)
chain: ANFNQSGNIADSSLSFTFTNSSNGPNLITTQTNSQALSQPIASSNVHDNFMNNEITASKIDDGNNSKPLSPGWTDQTAYNAFGITTGMFNTTTMDDVYNYLFDDEDTPPNPKKERGLAHAIRLLLEFTDTSYEEKRYTCGEAPDYDRSQWLDVKFKLDLDFPNLPYLLDGKNKITQSNAILRYIARKHNMCGETEEEKIRVDIIENQVMDFRTQLIRLCYSSDHEKLKPQYLEELPGQLKQFSMFLGKFSWFAGEKLTFVDFLTYDILDQNRIFDPKCLDEFPNLKAFMCRFEALEKIAAYLQSDQFCKMPINNKMAQWGNKPVC
notes: range 768-881;range 15-226; Yeast two-hybrid prey from the human brain cDNA library in pACT2
binding result [7]: binds

B8: bcr (break point cluster), amino acids 1206-1271 (C-terminal bait), fused to the Gal4 DNA binding domain (other, UniProt P04386 1-147, looked up)
chain: MKLLSSIEQACDICRLKKLKCSKEKPKCAKCLKNNWECRYSPKTKRSPLTRAHLTEVESRLERLEQLFLLIFPREDLDMILKMDSLQDIKALLTGLFVQDNVNKDAVTDRLASVETDMPLTLRQHRISATSSSEESSNKGQRQLTVSVFGPTLLRPSEKESKLPANPSQPITMTDSWSLEVMSQVQVLLYFLQLEAIPAPDSKRQSILFSTEV
notes: Yeast two-hybrid bait in pGBTQ
binding result [8]: binds
binding result [9]: binds

B9: HLA-B associated transcript (BAT3), amino acids 740-1040, fused to the Gal4 DNA binding domain (bait) (other, UniProt P04386 1-147, looked up)
chain: MKLLSSIEQACDICRLKKLKCSKEKPKCAKCLKNNWECRYSPKTKRSPLTRAHLTEVESRLERLEQLFLLIFPREDLDMILKMDSLQDIKALLTGLFVQDNVNKDAVTDRLASVETDMPLTLRQHRISATSSSEESSNKGQRQLTVSFEPGADGALGFFGALLSLLCQNFSMVDVVMLLHGHFQPLQRLQPQLRSFFHQHYLGGQEPTPSNIRMATHTLITGLEEYVRESFSLVQVQPGVDIIRTNLEFLQEQFNSIAAHVLHCTDSGFGARLLELCNQGLFECLALNLHCLGGQQMELAAVINGRIRRMSRGVNPSLVSWLTTMMGLRLQVVLEHMPVGPDAILRYVRRVGDPPQPLPEEPMEVQGAERASPEPQRENASPAPGTTAEEAMSRGPPPAPEGGSRDEQDGASAETEPWAAAVPPEWVPIIQQDIQSQRKVKPQPPLSD
notes: as for B8
binding result [10]: binds

B10: Mint1, amino acids 739-837, fused to the Gal4 DNA binding domain (bait) (other, UniProt P04386 1-147, looked up)
chain: MKLLSSIEQACDICRLKKLKCSKEKPKCAKCLKNNWECRYSPKTKRSPLTRAHLTEVESRLERLEQLFLLIFPREDLDMILKMDSLQDIKALLTGLFVQDNVNKDAVTDRLASVETDMPLTLRQHRISATSSSEESSNKGQRQLTVSIVRCPPVTTVLIRRPDLRYQLGFSVQNGIICSLMRGGIAERGGVRVGHRIIEINGQSVVATPHEKIVHILSNAVGEIHMKTMPAAMYRLLTAQEQPVYI
notes: Yeast two-hybrid bait in pGBTQ; also called X11 alpha
binding result [11]: binds
